Source: the RNAGym collection of RNA variant scans (doi:10.7554/elife.90254)
The source gives no read counts; variants with many changes may rest on few reads.

B1: LINE1-mini (parent)
chain: GGCAGAGCUCAACACAGCGUGGCAAAGUGGCUGUGGCUAGACUGCC

Variants of: B1
Assay: self-cleavage, relative activity (ratio to wild type); higher = more cleavage; in vitro, sequencing; the parent is a self-cleaving ribozyme

Variant | self-cleavage
C3G G35A C37A | 0.33
C3G A12C G35C U38G | 0.02
C3G A11G A12U G35A A41G | 0
C3G C8U U34G | 0.23
C3G G7A C31U | 0.13
C3G U9A G17U G19U | 0.04
C3U A6C G17U A41G C45A | 0.14
C3G G5A C31G G33A | 0.12
C3U A11C G30U | 0.05
C3G A6G A26C G40A C42A | 0.02
C3G U9C C15G A16G A41U | 0.02
C3U A11C A24G G33A U43A C45U | 0.02
C3G A6U G36C U38C | 0.14
C3A U20G G33U C45G | 0.09
C3G G5U C37A U38C G40U | 0.02
C3G C13U C31G U34G | 0.01
C3G A4C U9A | 0.11
C3G A6U G22U G36A A41C C46A | 1.24
C3U A11G C15G | 0.02
C3A U9C U28G G40A | 0.04
C3U A6C C10A | 0.02
C3G A6U G17C G40A | 0.01
C3A U20C A24U | 0.98
C3G A4U G7C G29C G40A | 0.02

Variant | self-cleavage
C3G C18A G30C | 0.2
C3G U20A G35U G36U C37G | 1.25
C3G A11G G27A C31U | 0.03
C3A U38G G44C | 0.01
C3A U9G C37U | 0.6
C3G C13G U20C G22C G36U | 0.03
C3G C8G G27U U34C U38A C45G | 0.03
C3G G40U C46A | 0.11
C3G G27C C37A | 0.19
C3G G5C A12U | 0.13
C3G A6G C18U A41U | 0.07
C3U A11C A12C | 0.01
C3U A11U G17U U43A | 0.03
C3G U20G G30C | 0.23
C3A U28A U38C | 0.07
C3G C13U C18U G35C | 0.03
C3G C8G U20G U34C | 0.01
C3G C13U A14U C42A C46U | 0.31
C3G C10G C31A G44U | 0.01
C3U A6U A24G G40U | 0.34
C3U A4G C8U A12G G17A | 0.05
C3U A14U C15A G19A | 0.11
C3G A16U G40U | 0.1
C3G C13A G29U | 0.13

Variant | self-cleavage
C3U A11C A25U A41C | 0.03
C3U A11G A39U | 0.03
C3U A11U C46G | 0.01
C3G G40U C45U C46G | 0.13
C3G C13U U34C | 0.1
C3G U20A G29A G33C | 0.09
C3G G5U G7U U20G G29C G30U U43G | 0.01
C3G A14U A24G G35A C42A | 0.18
C3U A14C A41G | 0.02
C3G G7A C13U G19A G21A A26G | 0.1
C3G A4U A14U C15G U34G A39U U43C | 0.01
C3U A6G C8G C18G G27U G33U U34A | 0.05
C3G A6U C15U G36A U38A G40U | 0.39
C3G A11G G19U G29U C31G | 0.01
C3A U28G U32A | 0.07
C3G A14U C45G | 0.3
C3G G17A G19U C45U | 0.07
C3G G5A C13G | 0.04
C3U A24C C37A U43G | 0
C3G U20C A39G | 0.34
C3U A12U G44C | 0.18
C3G C10G U20G G33A | 0
C3G C23G A25U U34A G36U C45G | 0.09
C3G A24G A26G G27A C46A | 0.24

Variant | self-cleavage
C3U A14G U32A | 0.13
C3G A6G A24G | 0.02
C3U A12C G40U | 0.02
C3G U9A A39U | 0.02
C3U A6U G7A C8G A14C | 0.05
C3A U9G U20C G21U A25U U43A | 0.1
C3U A6G A11U U32C C42G | 0
C3G A14C G30C C45U | 0.01
C3A U28G G30A C42G | 0.09
C3U A14C A39U G40A | 0.94
C3G C18U C23A U32A C45U | 0.06
C3G G7U C42U | 0.15
C3G A4C G33U | 0.04
C3U A4U A16C G33A G35A | 0.03
C3G A26U C45U | 0.04
C3G C10G C13G A14U G22C | 0.02
C3G A26C G30C | 0.04
C3G U20A G21C G29A U34G | 0.03
C3G C8U A11C G19C A24G | 0.05
C3G A4U C18G G21U C31A | 0.05
C3G A14C G22U G29U | 0.04
C3G C15G C18A U32C C42A C45G | 0.16
C3G C8A C10G | 0.03
C3G A4G C13A G29U G33C | 0.08

Variant | self-cleavage
C3G A26C G40C | 0.16
C3G A11U G29A | 0.02
C3G A14C G21C | 0.03
C3G G22U G27A | 0.36
C3G U9C C15G C42G | 0.03
C3G C13A U28C | 0.67
C3G C23U G29U C46A | 0.37
C3U A6C C8U A25G A26U | 0.2
C3G G17U C42U | 0.29
C3G U20G G29U | 0.16
C3U A16G C23A | 0.66
C3G A12U G19U G27C C37G | 0.01
C3G G21C G22C C23U U34G | 0.09
C3G A6C G22C C37U | 0.11
C3G G7A G22A G30C C45A | 0.16
C3U A24C C37G | 0.04
C3U A16G C18A C37A U38C | 0.02
C3G U32C U34A | 0.08
C3G U9G A26C | 0.76
C3G G7U U34C C46A | 0.07
C3G U28G U38C | 0.2
C3G A6U G40C | 0.05
C3G C18G G19A C23A | 0.04
C3A U20G G40A A41C G44A | 0.09

Variant | self-cleavage
C3U A6G A16U C23G G35A | 0.01
C3G G19C G22A | 0.37
C3G C31A A41G | 0.09
C3G G5C G19C U32G | 0.06
C3U A14C C37G | 0.07
C3G G5U C8A | 1.5
C3U A4G C18U C45U | 0.11
C3U A6U G7C C8A A12G A16G | 0.24
C3U A11U C15U | 0.02
C3G G5U A6C C23G A26C G44A | 0.1
C3G G30C U38A | 0.36
C3U A11G A12U G40C C46U | 0
C3G A26U G44C C45A | 0.53
C3G A4C G7U A16C G17A C23A | 0.78
C3G G7U A14C G40A | 0.02
C3U A6C A11C C15A G27A A39C | 0.02
C3U A11C A14G C15A C31U C45G | 0
C3U A24G G36C G40A C45A | 0.02
C3G G29C U32G | 0.1
C3G C8U C37A | 1.02
C3G G5U C10A A11G A14C U20C G22A U34C | 0.01
C3G C8U C45A | 0.28
C3U A11C G21A C45A | 0.01
C3G G5C C46A | 0.25

Variant | self-cleavage
C3G A16U G35U | 0.03
C3U A16C C37A | 0.07
C3U A4U C8U G29U G30A G35A | 0.08
C3G U9C U38C | 0.06
C3G C13U C18U G21A G29A G36U | 0.28
C3G G17A C23G U32G | 0.03
C3G G7C C8A A16U | 0.48
C3G A4U A41G | 0.02
C3G A4U G5U C15G A26G G29A C45U | 0.1
C3U A11C U28C | 0.03
C3G C13A C23A | 1.11
C3U A16G G19U | 0.1
C3G G30U C31G | 0.18
C3A U20G G21A U34C | 0.08
C3G A25C U32A | 0.1
C3U A4U C10U A39G C45A | 0.07
C3G G7U A12U C15A G19A | 0.05
C3G A4C G21A C23A C45A | 0.56
C3G G7C A39C C46U | 0.17
C3G G22U G30U A39C | 0.05
C3U A4C G5U U38G | 0.03
C3G A16C G30U G33U | 0.02
C3G G17C G36U | 0.13
